Some of the results follow.
Assays:
Assay in all cases: glycan array binding signal (z-score within array); higher = stronger binding
Conditions in all cases: glycan notation: IUPAC condensed, linker removed
[1] = molecular target: Fuc(a1-2)Gal6S(b1-3)GlcNAc6S
In short: (§1)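 Glycan array data came from 3228 arrays in the Consortium for Functional Glycomics database, and only arrays with an available protein sequence were kept. Glycan names were put into IUPAC-condensed notation, and columns mapping to the same glycan were averaged. The binding signal is a within-array Z-score, averaged across arrays of one protein sequence run at different concentrations or buffers and across linkers. A negative Z-score can be read as non-binding.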

Fuc(a1-2)Gal6S(b1-4)Glc = molecular target: Fuc(a1-2)Gal6S(b1-4)Glc
In short: as §1

[2] = molecular target: Fuc(a1-2)Gal6S(b1-4)Glc6S
In short: as §1

Fuc(a1-2)[Gal(a1-3)]Gal = molecular target: Fuc(a1-2)[Gal(a1-3)]Gal
In short: as §1

[3] = molecular target: Fuc(a1-2)[Gal(a1-3)]Gal(b1-3)GalNAc
In short: as §1

[4] = molecular target: Fuc(a1-2)[Gal(a1-3)]Gal(b1-3)GalNAc(b1-3)Gal(a1-4)Gal(b1-4)Glc
In short: as §1

[5] = molecular target: Fuc(a1-2)[Gal(a1-3)]Gal(b1-3)GlcNAc
In short: as §1

[6] = molecular target: Fuc(a1-2)[Gal(a1-3)]Gal(b1-3)GlcNAc(b1-2)Man(a1-3)[Fuc(a1-2)[Gal(a1-3)]Gal(b1-3)GlcNAc(b1-2)Man(a1-6)]Man(b1-4)GlcNAc(b1-4)GlcNAc
In short: as §1

[7] = molecular target: Fuc(a1-2)[Gal(a1-3)]Gal(b1-3)GlcNAc(b1-2)Man(a1-3)[Fuc(a1-2)[Gal(a1-3)]Gal(b1-3)GlcNAc(b1-2)Man(a1-6)]Man(b1-4)GlcNAc(b1-4)[Fuc(a1-6)]GlcNAc
In short: as §1

[8] = molecular target: Fuc(a1-2)[Gal(a1-3)]Gal(b1-3)GlcNAc(b1-3)GalNAc
In short: as §1

[9] = molecular target: Fuc(a1-2)[Gal(a1-3)]Gal(b1-3)GlcNAc(b1-6)GalNAc
In short: as §1

[10] = molecular target: Fuc(a1-2)[Gal(a1-3)]Gal(b1-4)Glc
In short: as §1

[11] = molecular target: Fuc(a1-2)[Gal(a1-3)]Gal(b1-4)GlcNAc
In short: as §1

[12] = molecular target: Fuc(a1-2)[Gal(a1-3)]Gal(b1-4)GlcNAc(b1-2)Man
In short: as §1

[13] = molecular target: Fuc(a1-2)[Gal(a1-3)]Gal(b1-4)GlcNAc(b1-2)Man(a1-3)[Fuc(a1-2)[Gal(a1-3)]Gal(b1-4)GlcNAc(b1-2)Man(a1-6)]Man(b1-4)GlcNAc(b1-4)GlcNAc
In short: as §1

[14] = molecular target: Fuc(a1-2)[Gal(a1-3)]Gal(b1-4)GlcNAc(b1-2)Man(a1-3)[Fuc(a1-2)[Gal(a1-3)]Gal(b1-4)GlcNAc(b1-2)Man(a1-6)]Man(b1-4)GlcNAc(b1-4)[Fuc(a1-6)]GlcNAc
In short: as §1

[15] = molecular target: Fuc(a1-2)[Gal(a1-3)]Gal(b1-4)GlcNAc(b1-3)GalNAc
In short: as §1

[16] = molecular target: Fuc(a1-2)[Gal(a1-3)]Gal(b1-4)GlcNAc(b1-3)[Fuc(a1-2)[Gal(a1-3)]Gal(b1-4)GlcNAc(b1-6)]GalNAc
In short: as §1

[17] = molecular target: Fuc(a1-2)[Gal(a1-3)]Gal(b1-4)GlcNAc(b1-6)GalNAc
In short: as §1

[18] = molecular target: Fuc(a1-2)[Gal(a1-3)]Gal(b1-4)[Fuc(a1-3)]Glc
In short: as §1

[19] = molecular target: Fuc(a1-2)[Gal(a1-3)]Gal(b1-4)[Fuc(a1-3)]GlcNAc
In short: as §1

[20] = molecular target: Fuc(a1-2)[Gal(a1-3)]Gal(b1-4)[Fuc(a1-3)]GlcNAc(b1-3)GalNAc
In short: as §1

[21] = molecular target: Fuc(a1-2)[Gal(a1-4)]Gal(b1-4)GlcNAc
In short: as §1

[22] = molecular target: Fuc(a1-2)[GalNAc(a1-3)]Gal
In short: as §1

[23] = molecular target: Fuc(a1-2)[GalNAc(a1-3)]Gal(b1-3)GalNAc(a1-3)[Fuc(a1-2)]Gal(b1-4)GlcNAc
In short: as §1

[24] = molecular target: Fuc(a1-2)[GalNAc(a1-3)]Gal(b1-3)GalNAc(b1-3)Gal(a1-4)Gal(b1-4)Glc
In short: as §1

[25] = molecular target: Fuc(a1-2)[GalNAc(a1-3)]Gal(b1-3)GlcNAc
In short: as §1

[26] = molecular target: Fuc(a1-2)[GalNAc(a1-3)]Gal(b1-3)GlcNAc(b1-2)Man(a1-3)[Fuc(a1-2)[GalNAc(a1-3)]Gal(b1-3)GlcNAc(b1-2)Man(a1-6)]Man(b1-4)GlcNAc(b1-4)GlcNAc
In short: as §1

[27] = molecular target: Fuc(a1-2)[GalNAc(a1-3)]Gal(b1-3)GlcNAc(b1-2)Man(a1-3)[Fuc(a1-2)[GalNAc(a1-3)]Gal(b1-3)GlcNAc(b1-2)Man(a1-6)]Man(b1-4)GlcNAc(b1-4)[Fuc(a1-6)]GlcNAc
In short: as §1

[28] = molecular target: Fuc(a1-2)[GalNAc(a1-3)]Gal(b1-3)GlcNAc(b1-3)GalNAc
In short: as §1

[29] = molecular target: Fuc(a1-2)[GalNAc(a1-3)]Gal(b1-3)GlcNAc(b1-6)GalNAc
In short: as §1

[30] = molecular target: Fuc(a1-2)[GalNAc(a1-3)]Gal(b1-4)Glc
In short: as §1

[31] = molecular target: Fuc(a1-2)[GalNAc(a1-3)]Gal(b1-4)GlcNAc
In short: as §1

[32] = molecular target: Fuc(a1-2)[GalNAc(a1-3)]Gal(b1-4)GlcNAc(b1-2)Man
In short: as §1

[33] = molecular target: Fuc(a1-2)[GalNAc(a1-3)]Gal(b1-4)GlcNAc(b1-2)Man(a1-3)[Fuc(a1-2)[GalNAc(a1-3)]Gal(b1-4)GlcNAc(b1-2)Man(a1-6)]Man(b1-4)GlcNAc(b1-4)GlcNAc
In short: as §1

[34] = molecular target: Fuc(a1-2)[GalNAc(a1-3)]Gal(b1-4)GlcNAc(b1-2)Man(a1-3)[Fuc(a1-2)[GalNAc(a1-3)]Gal(b1-4)GlcNAc(b1-2)Man(a1-6)]Man(b1-4)GlcNAc(b1-4)[Fuc(a1-6)]GlcNAc
In short: as §1

[35] = molecular target: Fuc(a1-2)[GalNAc(a1-3)]Gal(b1-4)GlcNAc(b1-3)Gal(b1-4)GlcNAc
In short: as §1

[36] = molecular target: Fuc(a1-2)[GalNAc(a1-3)]Gal(b1-4)GlcNAc(b1-3)Gal(b1-4)GlcNAc(b1-3)Gal(b1-4)GlcNAc
In short: as §1

[37] = molecular target: Fuc(a1-2)[GalNAc(a1-3)]Gal(b1-4)GlcNAc(b1-3)GalNAc
In short: as §1

[38] = molecular target: Fuc(a1-2)[GalNAc(a1-3)]Gal(b1-4)GlcNAc(b1-3)[Fuc(a1-2)[GalNAc(a1-3)]Gal(b1-4)GlcNAc(b1-6)]GalNAc
In short: as §1

[39] = molecular target: Fuc(a1-2)[GalNAc(a1-3)]Gal(b1-4)GlcNAc(b1-6)GalNAc
In short: as §1

[40] = molecular target: Fuc(a1-2)[GalNAc(a1-3)]Gal(b1-4)[Fuc(a1-3)]GlcNAc
In short: as §1

[41] = molecular target: Fuc(a1-2)[GalNAc(a1-3)]Gal(b1-4)[Fuc(a1-3)]GlcNAc(b1-3)GalNAc
In short: as §1

[42] = molecular target: Fuc(a1-2)[GalNAc(a1-4)]Gal(b1-4)GlcNAc
In short: as §1

[43] = molecular target: Fuc(a1-2)[GalNAc(b1-3)]Gal
In short: as §1

B1: Epa10 (protein)
chain: MNEKIFRYLTLLFLFELARSLPVEDKLNIKKVFEKRAVDFTPFAHYPRPEGCSSPPNSVSVGLHMNLYNYPYLYVKPSTKGMFTNDTNSDADGETDGDSAGGIEGRAGQCWNPEYQDPNFPRFGYKQYGEFGASDNVNGDISWDHNEFTEGCKPVLAALPPGYNYPDEITFSNFTMVLSGYFKPKTSGVYKFELKADDFILFNFGAKNAFECCNREESIDNFGPYVAYAMWPNQADQELEVYLFEDSYYPLRLFYNNRDYHSKFKIGFYPPGQTTITFDFDGYLFMLDDTGNECRDSIRYRTVCDDKVVDDTTYSTRYSTSMVPGGGSDVITIYYIRMKCEEEDCLGQWDPINNVCYSPDDCADDGGYWNGQMCDQSCKLEGGIVNPDTGDCDKSCIESGGFLDENGNCDTTCRDDGGMLVEGQCDYQCKEAGGILVGDHCDTTCVDSGGKLNEDGTCDHSCRDQGGQLDENGECDTSCKDSGGMLIEGECDTSCKDEGGQLDDNNECINHCKDQGGIIDENGNCDTSCKDSGGKLDESGACDTSCRDDGGIIDENGNCNTTCRDDGGIIVGDHCDTSCRDAGGILIEDHCDTTCRDSGGKLNEDGTCDHSCRDQGGQLDENGKCDYSCKNGGGKLDEDGNCDMSCKENGGKLDENGDCDLSCKEDGGKLDGNGDCDYSCKEEGGVIDESGNCNTTCKDSGGQIIDGECNYGCIEVGGVVIDGECDTSCIDSGGILDGDGNCDRSCIESGGVLEDGACNTTCRDSGGQLNVDGTCDTSCRDDGGMLVEGQCDYQCKEAGGILEDGECVFPPTSSSTSETSSTTDQSSLQSDDSSMESSSTPMDSSTIESSSSEIITSESESESVPIASSSSEVMTSESESESIPILTSSSEIPIASSSSEIPVASSSSEIIIPESESESVPVASSSSEIPIASSSSEIPVASSSSEIPVASSSSEIIIPESESESIPIESTSSEAVSSRSESDSSYPTPTPTTTTITTWPNPIQPTTSNSSPIVSSSTETPGIAESSSRISDLESSRRTSILGDDRTRTRTTITSTITEDGQIITITTTVTGFVPEPTGETEGNGSDDENPENPIENNTDENEFLDPEFTDDIPDDPAGPEDNGNGPVNPEQGNDNDPVNLEDSGNNGAVNPEQAPVNDEDNGGNDPVNPEQDNNNGPANPGQDSTNGSGNSDQIDNNPPTPEENAGDGNSNGNDPADPSRRTSILGDERTRASPGGTSQPTGANGNVNGNSPGANVNGGGTGNSNNNNNNNNNNNNGNAPNGGDGSNGDANQGPSRRTSLLGDERTRAGQAAPTGGSSPDNGIAGDTSNNGGAIVSQQVDDGGAGSPRRTSILGDVRSRTTLNGEVLNFEGSGVRRAVAGNLALPLMMVGLVFNL
glycan array binding signal (z-score) [1]: -0.129
glycan array binding signal (z-score) (Fuc(a1-2)Gal6S(b1-4)Glc): -0.269
glycan array binding signal (z-score) [2]: -0.234
glycan array binding signal (z-score) (Fuc(a1-2)[Gal(a1-3)]Gal): -0.229
glycan array binding signal (z-score) [3]: -0.17
glycan array binding signal (z-score) [4]: -0.256
glycan array binding signal (z-score) [5]: -0.196
glycan array binding signal (z-score) [6]: -0.134
glycan array binding signal (z-score) [7]: -0.19
glycan array binding signal (z-score) [8]: -0.269
glycan array binding signal (z-score) [9]: -0.216
glycan array binding signal (z-score) [10]: -0.272
glycan array binding signal (z-score) [11]: -0.185
glycan array binding signal (z-score) [12]: -0.139
glycan array binding signal (z-score) [13]: -0.112
glycan array binding signal (z-score) [14]: -0.219
glycan array binding signal (z-score) [15]: -0.253
glycan array binding signal (z-score) [16]: -0.185
glycan array binding signal (z-score) [17]: -0.16
glycan array binding signal (z-score) [18]: -0.253
glycan array binding signal (z-score) [19]: -0.207
glycan array binding signal (z-score) [20]: -0.118
glycan array binding signal (z-score) [21]: 0.73
glycan array binding signal (z-score) [22]: -0.271
glycan array binding signal (z-score) [23]: -0.215
glycan array binding signal (z-score) [24]: -0.219
glycan array binding signal (z-score) [25]: -0.231
glycan array binding signal (z-score) [26]: -0.272
glycan array binding signal (z-score) [27]: -0.228
glycan array binding signal (z-score) [28]: -0.137
glycan array binding signal (z-score) [29]: -0.228
glycan array binding signal (z-score) [30]: -0.26
glycan array binding signal (z-score) [31]: -0.251
glycan array binding signal (z-score) [32]: -0.225
glycan array binding signal (z-score) [33]: -0.175
glycan array binding signal (z-score) [34]: -0.227
glycan array binding signal (z-score) [35]: -0.315
glycan array binding signal (z-score) [36]: -0.182
glycan array binding signal (z-score) [37]: -0.211
glycan array binding signal (z-score) [38]: -0.237
glycan array binding signal (z-score) [39]: -0.201
glycan array binding signal (z-score) [40]: -0.164
glycan array binding signal (z-score) [41]: -0.113
glycan array binding signal (z-score) [42]: -0.334
glycan array binding signal (z-score) [43]: -0.284

— the supplement of paper PMC8728848
